# Measurements as given in the supplement of paper PMC8728848.
# Some of the results follow.
# B1: Epa1-NP-mutant-Y228A (Candida glabrata), Q6VBJ0 (protein)
# chain: MILNPALFLNKCVCIYTTLILLLLTNGGYATSSNDISLASKDPTTFPLGCSPDITTPKKGLSMELYSYDFRKKGSYPCWDAAYLDPNYPRTGYKSHRLLAKVDGVTGNINFYYHATKGCTPQLGHLPASYNYPKPLTMTNFTMLLYGYFRPKVTGFHTFTISADDLLFVNFGAGNAFDCCRRDSSADHFGNYQAYAIWGSKTAKDELTVHLDAGVYYPIRLFYNNREADGALSFTFKTESNENTVSDFSEYFFSLDDTEEGCPGLISYDSSCASVKTSKIIGIDYHTETPNENLVPITKTIYHLGIPCTGTTTTPLCGSGFYDPLANKCVTINTSSTSSVTKTTSHTTSKEVSFHSSISSQKTLIPKSIPSPYGPIKSQSIPTEMETSSEISSSEYAFSDVISTPSHSPYTKKHSSLNSSSYTSTVIHSLTSYSISQGIFSTSLSEQNITSKSSTDKFSTATSMSNNITQSSIIISQFSTNNENYTTTSMHTSSDKISTETLNNSISTTTSILFSNSSTILKNNTTIISSDKDTHYHPVNPTIVCSTNKTEIICASITQPSISNSNNHWSSSVLKFNSTTVRSTLPSSAGSNETSINVPFSSSTESNTSTSSTSTSNSKMVRSTLPSSAGSNETSISVPFSSSTESNTSTSSTSTSNSKMVRSTLPSSAGSNETSINVPFSSSTESNTSTSSTSTSNSKTVRSTPFSSAGIIMTSLSQRNNKSASSYASSNSKCYNTADSCRKVHSTPSYLLTSSYTSEGVDYDCSLVSTKLKINDTNCVNNKHTTKSCLKTSVTTTIPTLEIKTARKSSSNTIGLHSYPTSSPNKSISSAPIIGYISSFKTIKTASPSYQTSDLTTITTITSLNNPGSTAVENTHESNDKSRKTSSNDISSKHSVIKETKDAVESSNKSHQTNTLKCSSIIIASSSHNSYESLGGTTLTLTLSKVYSPQNNDTLPFLEISEVNPSRTVLPESSKMMQYLTSTEERNKTARNTIATNIVSISTFHFEGEGNAIRMGYTQLLLMLIGIIVMNIGT
# Legend:
# Assay in all cases: glycan array binding signal (z-score within array); higher = stronger binding
# Conditions in all cases: glycan notation: IUPAC condensed, linker removed; mutation: Y228A
# Fuc(a1-2)Gal = molecular target: Fuc(a1-2)Gal
# Outline: (§1)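 The Consortium for Functional Glycomics database supplied 3228 glycan arrays, of which those lacking an available protein sequence were dropped. The binding signal, a within-array Z-score, was averaged across arrays of the same protein sequence and across linkers. Negative scores can be read as non-binding.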
# Fuc(a1-2)Gal(b1-3)GalNAc = molecular target: Fuc(a1-2)Gal(b1-3)GalNAc
# Outline: as §1
# [1] = molecular target: Fuc(a1-2)Gal(b1-3)GalNAc(a1-3)[Fuc(a1-2)]Gal(b1-4)Glc
# Outline: as §1
# [2] = molecular target: Fuc(a1-2)Gal(b1-3)GalNAc(a1-3)[Fuc(a1-2)]Gal(b1-4)GlcNAc
# Outline: as §1
# [3] = molecular target: Fuc(a1-2)Gal(b1-3)GalNAc(b1-3)Gal
# Outline: as §1
# [4] = molecular target: Fuc(a1-2)Gal(b1-3)GalNAc(b1-3)Gal(a1-4)Gal(b1-4)Glc
# Outline: as §1
# [5] = molecular target: Fuc(a1-2)Gal(b1-3)GalNAc(b1-4)[Neu5Ac(a2-3)]Gal(b1-4)Glc
# Outline: as §1
# Fuc(a1-2)Gal(b1-3)GlcNAc = molecular target: Fuc(a1-2)Gal(b1-3)GlcNAc
# Outline: as §1
# [6] = molecular target: Fuc(a1-2)Gal(b1-3)GlcNAc(b1-2)Man(a1-3)[Fuc(a1-2)Gal(b1-3)GlcNAc(b1-2)Man(a1-6)]Man(b1-4)GlcNAc(b1-4)GlcNAc
# Outline: as §1
# [7] = molecular target: Fuc(a1-2)Gal(b1-3)GlcNAc(b1-2)Man(a1-3)[Fuc(a1-2)Gal(b1-3)GlcNAc(b1-2)Man(a1-6)]Man(b1-4)GlcNAc(b1-4)[Fuc(a1-6)]GlcNAc
# Outline: as §1
# [8] = molecular target: Fuc(a1-2)Gal(b1-3)GlcNAc(b1-3)Gal(b1-4)Glc
# Outline: as §1
# [9] = molecular target: Fuc(a1-2)Gal(b1-3)GlcNAc(b1-3)GalNAc
# Outline: as §1
# [10] = molecular target: Fuc(a1-2)Gal(b1-3)GlcNAc(b1-3)[Fuc(a1-2)Gal(b1-3)GlcNAc(b1-6)]GalNAc
# Outline: as §1
# [11] = molecular target: Fuc(a1-2)Gal(b1-3)GlcNAc(b1-3)[Gal(b1-4)GlcNAc(b1-6)]Gal(b1-4)Glc
# Outline: as §1
# [12] = molecular target: Fuc(a1-2)Gal(b1-3)GlcNAc(b1-3)[Neu5Ac(a2-6)Gal(b1-4)GlcNAc(b1-6)]Gal(b1-4)Glc
# Outline: as §1
# [13] = molecular target: Fuc(a1-2)Gal(b1-3)GlcNAc6S
# Outline: as §1
# [14] = molecular target: Fuc(a1-2)Gal(b1-3)[Fuc(a1-4)]GlcNAc
# Outline: as §1
# [15] = molecular target: Fuc(a1-2)Gal(b1-3)[Fuc(a1-4)]GlcNAc(b1-2)Man(a1-3)[Fuc(a1-2)Gal(b1-3)[Fuc(a1-4)]GlcNAc(b1-2)Man(a1-3)]Man(b1-4)GlcNAc(b1-4)GlcNAc
# Outline: as §1
# [16] = molecular target: Fuc(a1-2)Gal(b1-3)[Fuc(a1-4)]GlcNAc(b1-2)Man(a1-3)[Fuc(a1-2)Gal(b1-3)[Fuc(a1-4)]GlcNAc(b1-2)Man(a1-6)]Man(b1-4)GlcNAc(b1-4)[Fuc(a1-6)]GlcNAc(b1-4)[Fuc(a1-6)]GlcNAc
# Outline: as §1
# [17] = molecular target: Fuc(a1-2)Gal(b1-3)[Fuc(a1-4)]GlcNAc(b1-3)[Fuc(a1-3)[Gal(b1-4)]GlcNAc(b1-6)]Gal(b1-4)Glc
# Outline: as §1
# [18] = molecular target: Fuc(a1-2)Gal(b1-3)[Fuc(a1-4)]GlcNAc(b1-3)[Gal(b1-4)GlcNAc(b1-6)]Gal(b1-4)Glc
# Outline: as §1
# [19] = molecular target: Fuc(a1-2)Gal(b1-4)Fuc(a1-3)]GlcNAc(b1-2)Man(a1-3)[Fuc(a1-2)Gal(b1-4)[Fuc(a1-3)]GlcNAc(b1-2)Man(a1-6)]Man(b1-4)GlcNAc(b1-4)GlcNAc
# Outline: as §1
# Fuc(a1-2)Gal(b1-4)Glc = molecular target: Fuc(a1-2)Gal(b1-4)Glc
# Outline: as §1
# Fuc(a1-2)Gal(b1-4)Glc6S = molecular target: Fuc(a1-2)Gal(b1-4)Glc6S
# Outline: as §1
# Fuc(a1-2)Gal(b1-4)GlcNAc = molecular target: Fuc(a1-2)Gal(b1-4)GlcNAc
# Outline: as §1
# [20] = molecular target: Fuc(a1-2)Gal(b1-4)GlcNAc(b1-2)Man
# Outline: as §1
# [21] = molecular target: Fuc(a1-2)Gal(b1-4)GlcNAc(b1-2)Man(a1-3)[Fuc(a1-2)Gal(b1-4)GlcNAc(b1-2)Man(a1-6)]Man(b1-4)GlcNAc(b1-4)GlcNAc
# Outline: as §1
# [22] = molecular target: Fuc(a1-2)Gal(b1-4)GlcNAc(b1-2)Man(a1-3)[Fuc(a1-2)Gal(b1-4)GlcNAc(b1-2)Man(a1-6)]Man(b1-4)GlcNAc(b1-4)[Fuc(a1-6)]GlcNAc
# Outline: as §1
# [23] = molecular target: Fuc(a1-2)Gal(b1-4)GlcNAc(b1-2)[Fuc(a1-2)Gal(b1-4)GlcNAc(b1-4)]Man(a1-3)[Fuc(a1-2)Gal(b1-4)GlcNAc(b1-2)Man(a1-6)]Man(b1-4)GlcNAc(b1-4)GlcNAc
# Outline: as §1
# [24] = molecular target: Fuc(a1-2)Gal(b1-4)GlcNAc(b1-3)Gal(b1-4)GlcNAc
# Outline: as §1
binder,measurement,setting,value
B1,glycan array binding signal (z-score),Fuc(a1-2)Gal,-0.198
same,glycan array binding signal (z-score),Fuc(a1-2)Gal(b1-3)GalNAc,-0.26
same,glycan array binding signal (z-score),[1],-0.231
same,glycan array binding signal (z-score),[2],-0.209
same,glycan array binding signal (z-score),[3],-0.25
same,glycan array binding signal (z-score),[4],-0.328
same,glycan array binding signal (z-score),[5],-0.321
same,glycan array binding signal (z-score),Fuc(a1-2)Gal(b1-3)GlcNAc,-0.251
same,glycan array binding signal (z-score),[6],-0.104
same,glycan array binding signal (z-score),[7],-0.085
same,glycan array binding signal (z-score),[8],-0.246
same,glycan array binding signal (z-score),[9],-0.272
same,glycan array binding signal (z-score),[10],-0.187
same,glycan array binding signal (z-score),[11],-0.261
same,glycan array binding signal (z-score),[12],-0.258
same,glycan array binding signal (z-score),[13],-0.209
same,glycan array binding signal (z-score),[14],0.168
same,glycan array binding signal (z-score),[15],-0.09
same,glycan array binding signal (z-score),[16],-0.098
same,glycan array binding signal (z-score),[17],-0.414
same,glycan array binding signal (z-score),[18],-0.27
same,glycan array binding signal (z-score),[19],-0.236
same,glycan array binding signal (z-score),Fuc(a1-2)Gal(b1-4)Glc,-0.177
same,glycan array binding signal (z-score),Fuc(a1-2)Gal(b1-4)Glc6S,0.011
same,glycan array binding signal (z-score),Fuc(a1-2)Gal(b1-4)GlcNAc,-0.292
same,glycan array binding signal (z-score),[20],-0.302
same,glycan array binding signal (z-score),[21],-0.023
same,glycan array binding signal (z-score),[22],-0.172
same,glycan array binding signal (z-score),[23],-0.139
same,glycan array binding signal (z-score),[24],-0.333
